# Source: PubChem BioAssay AID1347428 (National Center for Advancing Translational Sciences (NCATS), 2020)
# The campaign covered roughly 91,000 compounds. About 290 (0.32%) were called active. The inconclusive results got no clear call from the source; some entries with a clear call stand among them for comparison. Calls follow the shape of the dose curve; as a rule, active = well fitted inhibition curve with a large enough effect; inconclusive = small, poorly fitted or top-dose-only effect; inactive = no such curve, though single readings can be large or run the other way. Potencies beside an inconclusive call are fits to weak or partial responses and may not hold up.
# Molecular target: Single-stranded DNA cytosine deaminase (Homo sapiens) (UniProt Q9GZX7)
# Sequence of UniProt Q9GZX7 (Q9GZX7 whole entry, looked up): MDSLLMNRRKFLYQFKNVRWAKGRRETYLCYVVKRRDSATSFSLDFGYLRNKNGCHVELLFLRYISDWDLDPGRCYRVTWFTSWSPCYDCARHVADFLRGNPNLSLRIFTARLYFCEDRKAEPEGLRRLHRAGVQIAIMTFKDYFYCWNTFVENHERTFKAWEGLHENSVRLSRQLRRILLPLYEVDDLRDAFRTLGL
# Test: Primary qHTS assay for inhibitors of Activation Induced Cytidine Deaminase (AID): AID signal; also: nearly all actives have a fitted effect of over 25% in size
# Conditions: AID deamination FRET fluorescence, UDG-coupled, 4 h; series mostly up to 115 µM
# Potency is read from the fitted curve at half-maximal effect; tags tell the direction and shape of the fitted curve.
row,Structure (SMILES),Potency
1,COC(=O)C(C)N1C(=O)S/C(=C/c2ccc(C)o2)C1=O (configuration not stated),inactive
2,CCc1c(-c2ccccc2)nc2ccccc2c1C(=O)NC(C)c1ccccc1 (configuration not stated),"inconclusive: 28.2 µM [inhibitor, full curve]"
3,CCOc1ccccc1NC(=O)CSc1c2c(nc3ccc(Cl)cc13)CCCC2,"inconclusive: 56.2 µM [inhibitor, partial curve, poor fit]"
4,C#CCNC(=O)CN(C)Cc1ccc(C(F)(F)F)cc1,inactive
5,COc1ccc(C(=O)Nc2nnc(SCc3cc(=O)c4cc(C)ccc4[nH]3)s2)cc1OC,"inconclusive: 35.5 µM [inhibitor, full curve, poor fit]"
6,CCOc1cc(C(=O)Nc2ccc(NS(C)(=O)=O)cc2)ccc1OC,inactive
7,Cc1ccc(-c2cn(-c3cccc(Cl)c3)c(S(=O)(=O)CC(=O)Nc3ccccc3F)n2)cc1,"inconclusive: 10 µM [inhibitor, partial curve, poor fit]"
8,Cc1ccc2[nH]c(C)c(CCNC(=S)NC(C)(C)C)c2c1,inactive
9,Cc1ccc(N(Cc2cccs2)C(=O)c2ccccc2Cl)cc1,"inconclusive: 89.1 µM [inhibitor, partial curve, poor fit]"
10,COc1cc(OC)c(OC)cc1CN1CCCC(C(=O)N2CCCCCC2)C1 (configuration not stated),inactive
11,C[N+](C)(CCCCCC[N+](C)(C)CCCN1C(=O)c2cccc3cccc(c23)C1=O)CCCN1C(=O)c2cccc3cccc(c23)C1=O,active: 4.47 µM
12,O=C(NCCc1ccc(F)cc1)C(=O)NCC(c1ccco1)S(=O)(=O)c1cccs1 (configuration not stated),"inconclusive: 14.1 µM [inhibitor, partial curve, poor fit]"
13,O=C(Nc1cccc(C(F)(F)F)c1)c1cc(-c2ccc3c(c2)OCCO3)on1,"inconclusive: 79.4 µM [inhibitor, single point]"
14,CC(=O)c1ccc(N2CCN(C(=O)CCCCn3c(=O)[nH]c4ccsc4c3=O)CC2)cc1,inactive
15,Cc1c(C(=O)OC(C)C)sc(NC(=O)C2c3ccccc3Oc3ccccc32)c1C(=O)OC(C)C,"inconclusive: 39.8 µM [inhibitor, single point]"
16,CCOC(=O)c1cccc(NS(=O)(=O)c2cc(-c3cnc(C4CC4)o3)ccc2C)c1,"inconclusive: 79.4 µM [inhibitor, single point]"
17,Cc1ccsc1CN(C(=O)c1ccc(OCC(C)C)cc1)C1CCS(=O)(=O)C1 (configuration not stated),"inconclusive: 50.1 µM [inhibitor, partial curve, poor fit]"
18,CC1(C)CC(=O)c2cc(C#N)c(=O)n(-c3ccc(Cl)cc3)c2C1,"inconclusive: 79.4 µM [inhibitor, partial curve, poor fit]"
19,COc1cccc(Oc2nc(C)nc3c2oc2ccccc23)c1,"inconclusive: 50.1 µM [inhibitor, partial curve, poor fit]"
20,O=C(O)CC/C(=C/c1ccc2ccccc2c1)c1nc2ccccc2s1,inactive
21,CCCCOc1cccc(C(=O)N(Cc2ccc(N(C)C)cc2)C2CCS(=O)(=O)C2)c1 (configuration not stated),"inconclusive: 50.1 µM [inhibitor, partial curve, poor fit]"

row,Structure (SMILES),Potency
1,Cc1cc2oc(C(=O)NCC(c3cccs3)N3CCCC3)cc(=O)c2cc1Cl (configuration not stated),inactive
2,CC(C)(C)c1ccc(C(=O)NCC(c2ccco2)S(=O)(=O)c2ccc(F)cc2)cc1 (configuration not stated),"inconclusive: 14.1 µM [inhibitor, full curve, poor fit]"
3,CCC1CN(CC(=O)Nc2ccc(NC(C)=O)cc2)c2ccccc2S1 (configuration not stated),inactive
4,COc1ccc(CNC(=O)CSc2ncc3c(n2)-c2ccc(Cl)cc2N(Cc2ccc(F)cc2)S3(=O)=O)cc1OC,"inconclusive: 100 µM [inhibitor, single point]"
5,COc1ccc(CCC(=O)NCc2ccc3c(c2)CCN3C(=O)c2ccc(F)cc2)cc1,inactive
6,O=C(CC1N=C2c3ccccc3N=C(SCc3ccccc3F)N2C1=O)NCCc1ccccc1 (configuration not stated),active: 35.5 µM
7,Cc1nc2c(C(=O)NCc3ccccc3)cnn2c(C)c1Cc1ccc(F)cc1,"inconclusive: 79.4 µM [inhibitor, partial curve, poor fit]"
8,COc1cc(NC(=O)CN2C(=O)C(c3ccc(C)cc3)=NC23CCCCC3)cc(OC)c1,"inconclusive: 20 µM [inhibitor, full curve, poor fit]"
9,Cc1ccc(NC(=O)c2cnn(-c3ccc(C)c(C)c3)c2C2CCN(C(=O)OC(C)(C)C)CC2)c(C)c1,"inconclusive: 20 µM [inhibitor, full curve, poor fit]"
10,CCN1C(=O)c2ccccc2Sc2ccc(NC(=O)COc3ccc(Cl)cc3)cc21,"inconclusive: 14.1 µM [inhibitor, partial curve, poor fit]"
11,O/N=C/c1ccc(OC(F)F)cc1,inactive
12,COc1ccc(Nc2c3c(nc4ccc(NC(=O)/C=C/c5cc(OC)c(OC)c(OC)c5)cc24)CCCC3)cc1OC,"inconclusive: 12.6 µM [inhibitor, full curve, poor fit]"
13,CCOC(=O)/C(C#N)=C/c1cc(Br)ccc1OCc1ccccc1Cl,"inconclusive: 17.8 µM [inhibitor, full curve]"
14,Cc1ccc(C(=O)Nc2ccc(-c3nc4ccc(C)cc4s3)cc2)c(C)c1,inactive
15,O=C(c1cccs1)N(Cc1cccnc1)c1nc2c(Cl)cccc2s1,"inconclusive: 39.8 µM [inhibitor, partial curve, poor fit]"
16,NC(=O)c1ccccc1NC(=O)C1CCCN(c2ncnc3onc(-c4ccc(F)cc4)c23)C1 (configuration not stated),"inconclusive: 28.2 µM [inhibitor, partial curve, poor fit]"
17,COc1cccc(-c2nc(N3CCCCCC3)c3ccccc3n2)c1O,"inconclusive: 20 µM [inhibitor, full curve]"
18,COc1ccc(-c2cn3nc(N4CCCC(C(=O)Nc5ccc(C)c(C)c5)C4)sc3n2)cc1 (configuration not stated),"inconclusive: 100 µM [inhibitor, partial curve, poor fit]"
19,CCC(=O)N1c2nc(-c3ccco3)nn2C2(CCCCC2)[C@@H]2CCCC[C@@H]21,"inconclusive: 56.2 µM [inhibitor, partial curve, poor fit]"
20,COc1cc(C2C3=C(CCCC3=O)OC3=C2C(=O)CCC3)ccc1OCc1cccc(F)c1,"inconclusive: 50.1 µM [inhibitor, partial curve, poor fit]"
21,O=[N+]([O-])/C(=C(\Sc1ccc(Cl)cc1)c1ccccc1)c1ccccc1,inactive

row,Structure (SMILES),Potency
1,CN(C(=O)c1ccc2c(c1)N(Cc1cccc(Cl)c1)C(=O)c1ccccc1S2=O)C1CCCCC1 (configuration not stated),"inconclusive: 50.1 µM [inhibitor, partial curve, poor fit]"
2,Cc1cc(C)cc(N2C(=O)CSC23C(=O)N(CC(=O)NCCc2ccccc2)c2ccccc23)c1 (configuration not stated),"inconclusive: 100 µM [inhibitor, partial curve, poor fit]"
3,Cc1ccc(CSCc2ccc(C(=O)NCCc3ccc(Cl)cc3)o2)cc1,"inconclusive: 12.6 µM [inhibitor, full curve, poor fit]"
4,O=C(CCc1cccc(F)c1)NCc1ccc(F)cc1C(F)(F)F,inactive
5,Cc1ccc(C(C)C)c(OCC(=O)Nc2ccc(C(=O)OC3CCCCC3)cc2)c1,"inconclusive: 50.1 µM [inhibitor, partial curve]"
6,CCOc1ccc(-c2nc(SCC(=O)Nc3ccc(C)c(C)c3)n3[nH]c(=O)cc3n2)cc1,"inconclusive: 100 µM [inhibitor, single point]"
7,COCCn1ccc2c(OCC(=O)Nc3cccc(OC)c3)cccc2c1=O,"inconclusive: 89.1 µM [inhibitor, single point]"
8,Cc1ccc(C)c(-n2c(CCC(=O)O)ccc2-c2ccc(Cl)cc2)c1,"inconclusive: 50.1 µM [inhibitor, partial curve, poor fit]"
9,COc1cc(NC(=O)CCc2nc(-c3cccs3)no2)cc(OC)c1OC,"inconclusive: 89.1 µM [inhibitor, single point]"
10,CC(C)n1nc(C(=O)Nc2cc(C(F)(F)F)ccc2N2CCOCC2)c2ccccc2c1=O,inactive
11,CSc1cccc(NC(=O)Cn2c3ncccc3c(=O)n2-c2ccc(C)cc2)c1,"inconclusive: 63.1 µM [inhibitor, partial curve, poor fit]"
12,CCc1c(-c2ccccc2)nc2ccccc2c1C(=O)NCCc1ccccc1,"inconclusive: 39.8 µM [inhibitor, partial curve]"
13,Cc1cccc(-n2c3nc(=O)[nH]c(=O)c-3cc3c(Cl)cccc32)c1C,"inconclusive: 50.1 µM [inhibitor, partial curve, poor fit]"
14,CCOc1ccc(NS(=O)(=O)c2ccc3[nH]cc(C(=O)N(C)Cc4ccccc4)c(=O)c3c2)cc1,"inconclusive: 79.4 µM [inhibitor, partial curve, poor fit]"
15,CCN(CC)S(=O)(=O)c1ccc(C(=O)Nc2nc3c(Cl)cc(Cl)cc3s2)cc1,"inconclusive: 11.2 µM [inhibitor, full curve, poor fit]"
16,Cc1cccc(-c2nc(C#N)c(NCc3ccc4c(c3)OCO4)o2)c1,inactive
17,Fc1ccc(C=Nc2cccc3c(N=Cc4ccc(F)cc4)cccc23)cc1,inactive
18,Cc1ccc(C2=NN(C(=O)CNc3ccc(C(=O)N(C)C)cc3)C(c3ccco3)C2)cc1 (configuration not stated),inactive
19,CN1CCN(c2oc(-c3ccc(COc4ccc(Cl)cc4)o3)nc2C#N)CC1,"inconclusive: 35.5 µM [inhibitor, partial curve]"
20,COc1ccc(-c2ccc(CCC(=O)Nc3cc(Cl)ccc3OC)o2)cc1,inactive
